Measurements as given in article PMC4336329 (PLoS ONE, 2015).
Among all 310,000 compounds or so, about 14,000 (4.5%) showed an effect of 50% or more. The effect is printed as a negative number. This is one part of the list.

Target: human ether-à-go-go-related gene (hERG) potassium channel (human, UniProt Q12809)
Assay: primary screen, population patch clamp on CHO cells stably expressing hERG
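Note: peak tail current of the secondary pulse compared with the same well before compound.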

Chain of human ether-à-go-go-related gene (hERG) potassium channel (Q12809 whole entry, looked up): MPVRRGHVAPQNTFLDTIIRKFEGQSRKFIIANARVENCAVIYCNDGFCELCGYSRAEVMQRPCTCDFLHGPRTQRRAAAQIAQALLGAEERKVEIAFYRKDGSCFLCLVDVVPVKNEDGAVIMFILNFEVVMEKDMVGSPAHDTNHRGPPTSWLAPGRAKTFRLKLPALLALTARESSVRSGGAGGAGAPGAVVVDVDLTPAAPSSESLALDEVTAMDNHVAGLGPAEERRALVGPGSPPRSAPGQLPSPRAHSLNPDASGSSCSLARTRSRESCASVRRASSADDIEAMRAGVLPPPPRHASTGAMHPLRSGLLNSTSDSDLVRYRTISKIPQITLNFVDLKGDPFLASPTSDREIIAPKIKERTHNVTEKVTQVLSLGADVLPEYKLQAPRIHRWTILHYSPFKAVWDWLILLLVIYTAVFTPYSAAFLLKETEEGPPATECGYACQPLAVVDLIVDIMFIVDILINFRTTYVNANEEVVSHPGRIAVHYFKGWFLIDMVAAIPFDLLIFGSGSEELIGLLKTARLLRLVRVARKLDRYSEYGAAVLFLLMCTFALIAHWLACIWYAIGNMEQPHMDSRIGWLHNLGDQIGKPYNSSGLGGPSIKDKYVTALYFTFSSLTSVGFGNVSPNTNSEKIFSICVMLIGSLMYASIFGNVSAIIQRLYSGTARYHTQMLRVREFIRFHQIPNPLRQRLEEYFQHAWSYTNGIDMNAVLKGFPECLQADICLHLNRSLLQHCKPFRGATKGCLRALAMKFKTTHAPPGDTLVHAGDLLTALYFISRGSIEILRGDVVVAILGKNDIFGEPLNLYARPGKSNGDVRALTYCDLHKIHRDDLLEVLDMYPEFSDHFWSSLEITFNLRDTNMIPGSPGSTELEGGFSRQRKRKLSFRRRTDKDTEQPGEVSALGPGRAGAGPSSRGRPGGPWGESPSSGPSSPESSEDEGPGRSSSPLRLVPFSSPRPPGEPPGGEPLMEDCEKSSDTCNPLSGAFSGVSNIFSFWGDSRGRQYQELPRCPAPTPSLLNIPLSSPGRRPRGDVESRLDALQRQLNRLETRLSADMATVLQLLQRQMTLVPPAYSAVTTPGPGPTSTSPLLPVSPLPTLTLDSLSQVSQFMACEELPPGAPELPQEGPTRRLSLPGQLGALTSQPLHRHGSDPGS

Row | SMILES | hERG current change (%, negative = inhibition) at 10uM [%]
1 | Cc1ccccc1NC(=S)N(Cc1ccccc1)Cc1cccnc1 | -2.5
2 | CC(C)OC(=O)c1nnn(-c2nonc2N)c1CSc1ccccn1 | -18.1
3 | CSc1sc(C(=O)NCC2CC2)c(-c2cccs2)c1C#N | -21.9
4 | CC(C)(C)CC(=O)NC(=S)NCc1ccco1 | 4.25
5 | CCOc1ccccc1C(=O)NCC(=O)NCC(c1ccco1)N1CCCCC1 (stereo not drawn) | -10.5
6 | COC(=O)c1sccc1NC(=S)N1CCC(C(N)=O)CC1 | -2.08
7 | COc1ccc(NC(=O)CCCNC(=O)Cn2cnc3sc(C)c(C)c3c2=O)cc1OC | 16.4
8 | CCc1nc(SCC(=O)N2CCCc3ccccc32)c2oc3ccccc3c2n1 | -18.3
9 | N/C(COc1cccc(Cl)c1)=N\O | 13
10 | CC(C)CC(NC(N)=O)C(=O)NCCc1ccc(Cl)cc1Cl (stereo not drawn) | 3.07
11 | O=C(O)CC12CC3CC(C1)CC(n1ncc(NCc4ccco4)c(Cl)c1=O)(C3)C2 | 4.02
12 | COCCOC(=O)/C=C1/NC(=O)CS1 | -11.1
13 | Cc1ccc(NC(CNS(=O)(=O)c2ccc(Cl)cc2)c2ccccc2)cc1 (stereo not drawn) | 1.88
14 | COc1cc(-c2nnc(SCC(=O)Nc3ccc4c(c3)OCCO4)o2)cc(OC)c1OC | 4.75
15 | COc1ccc2cc(C(=O)COC(=O)COc3ccc4c(C)cc(=O)oc4c3)ccc2c1 | 6.98
16 | O=C(N/N=C/c1ccc(-c2ccc(Br)cc2)o1)c1ccc2c(c1)OCO2 | -1.81
17 | O=C(O)Cn1ncn(-c2ccc(OC(F)(F)F)cc2)c1=O | 17.2
18 | CC1=CCC2C(=O)N(c3ccc(Br)cc3C)C(=O)C2C1 (stereo not drawn) | -14.6
19 | Cc1ccc2oc(=O)c3cc(C(=O)NCCCN4CCCC(C)C4)sc3c2c1 (stereo not drawn) | -34.9
20 | Br.CCCc1cc(-c2nc(-c3ccc(C)cc3)cs2)ccn1 | 6.1
21 | O=C(CNC(=O)c1ccccc1)OCc1cc(=O)n2cc(Br)ccc2n1 | -31.6
22 | CC(C)(Oc1ccc(Cl)cc1)C(=O)NCc1ccc(S(N)(=O)=O)cc1 | -4.49
23 | COC(=O)c1ccccc1NC(=O)C(C)Oc1ccccc1 (stereo not drawn) | -10.3

Row | SMILES | hERG current change (%, negative = inhibition) at 10uM [%]
24 | C/C(=N\Nc1cccc(C(=O)O)c1)c1ccc(Cl)s1 | 4.6
25 | C=COCCCNc1ncnc2sc(-c3ccccc3)cc12 | 9.86
26 | COc1cc([N+](=O)[O-])cc(/C=C2/SC(=S)N(Cc3ccccc3)C2=O)c1O | 28.8
27 | COc1ccc(OC)c(C2C(C#N)=C(N)Oc3cc(N)ccc32)c1 (stereo not drawn) | 7.21
28 | O=P(O)(O)Cc1c(Cl)cccc1Cl | 20.1
29 | COC(=O)c1c(NC(=O)Nc2ccc(Cl)cc2)sc(C)c1C | 10.4
30 | CC1CCCCC1NC(=O)CCCCn1c(=O)[nH]c2ccsc2c1=O (stereo not drawn) | 24.9
31 | Cc1ccc(Nc2ccccc2N)cc1 | 20.3
32 | COc1ccc2[nH]cc(CCNC(=O)c3ccc([N+](=O)[O-])cc3)c2c1 | -28.8
33 | CCC(=O)N1CCN(C(=O)CC)C1c1ccccc1 | 4.33
34 | COc1cccc(S(=O)(=O)Nc2ccc(C(=O)NCc3ccco3)cc2)c1 | 3.01
35 | CN(c1ccccc1)S(=O)(=O)c1ccc(C(=O)Nc2ncccc2O)cc1 | -1.85
36 | CN(O)/C=c1/ccc2c(n1)C(=O)C=CC=2 | -8.33
37 | O=C(c1cc(-c2ccccc2)nc2ccccc12)N1CCN(c2ccccn2)CC1 | -27.6
38 | Cc1ccccc1Cn1c(=O)c2c(nc3n2CCCN3Cc2ccccc2)n(C)c1=O | -15.3
39 | CC(C)(C)C1CCC(=NNC(=O)c2cc3c(s2)CCCC3)CC1 (stereo not drawn) | 20.1
40 | C1=C(c2ccccc2)CCN(c2ncnc3nc[nH]c23)C1 | -13.9
41 | CCOC(=O)c1cnn(-c2cccc(Cl)c2)c1N | -17.6
42 | O=S(=O)(c1ccc(NC(=S)N/N=C/c2ccc(N3CCOCC3)cc2)cc1)N1CCOCC1 | 13.9
43 | Clc1ccc(SCCN2CCNCC2)cc1.O=C(O)C(=O)O | -5.25
44 | COC(=O)c1sccc1NC(=O)CSc1ccccc1NS(=O)(=O)c1ccc(Cl)cc1 | -1.77
45 | Cc1c(NC(=O)c2cccnc2C(=O)O)cccc1C(=O)O | 1.63
